The values that follow come from PMC4336329 (PLoS ONE, 2015).

Among all 310,000 compounds or so, about 2,200 (0.71%) showed an effect of 50% or more. Effects have a minus sign here. The list shows a part of the results.

For the test, the target named is human ether-à-go-go-related gene (hERG) potassium channel (human, UniProt Q12809). Put plainly: primary screen, population patch clamp on CHO cells stably expressing hERG.
Chain of human ether-à-go-go-related gene (hERG) potassium channel (Q12809 whole entry, looked up): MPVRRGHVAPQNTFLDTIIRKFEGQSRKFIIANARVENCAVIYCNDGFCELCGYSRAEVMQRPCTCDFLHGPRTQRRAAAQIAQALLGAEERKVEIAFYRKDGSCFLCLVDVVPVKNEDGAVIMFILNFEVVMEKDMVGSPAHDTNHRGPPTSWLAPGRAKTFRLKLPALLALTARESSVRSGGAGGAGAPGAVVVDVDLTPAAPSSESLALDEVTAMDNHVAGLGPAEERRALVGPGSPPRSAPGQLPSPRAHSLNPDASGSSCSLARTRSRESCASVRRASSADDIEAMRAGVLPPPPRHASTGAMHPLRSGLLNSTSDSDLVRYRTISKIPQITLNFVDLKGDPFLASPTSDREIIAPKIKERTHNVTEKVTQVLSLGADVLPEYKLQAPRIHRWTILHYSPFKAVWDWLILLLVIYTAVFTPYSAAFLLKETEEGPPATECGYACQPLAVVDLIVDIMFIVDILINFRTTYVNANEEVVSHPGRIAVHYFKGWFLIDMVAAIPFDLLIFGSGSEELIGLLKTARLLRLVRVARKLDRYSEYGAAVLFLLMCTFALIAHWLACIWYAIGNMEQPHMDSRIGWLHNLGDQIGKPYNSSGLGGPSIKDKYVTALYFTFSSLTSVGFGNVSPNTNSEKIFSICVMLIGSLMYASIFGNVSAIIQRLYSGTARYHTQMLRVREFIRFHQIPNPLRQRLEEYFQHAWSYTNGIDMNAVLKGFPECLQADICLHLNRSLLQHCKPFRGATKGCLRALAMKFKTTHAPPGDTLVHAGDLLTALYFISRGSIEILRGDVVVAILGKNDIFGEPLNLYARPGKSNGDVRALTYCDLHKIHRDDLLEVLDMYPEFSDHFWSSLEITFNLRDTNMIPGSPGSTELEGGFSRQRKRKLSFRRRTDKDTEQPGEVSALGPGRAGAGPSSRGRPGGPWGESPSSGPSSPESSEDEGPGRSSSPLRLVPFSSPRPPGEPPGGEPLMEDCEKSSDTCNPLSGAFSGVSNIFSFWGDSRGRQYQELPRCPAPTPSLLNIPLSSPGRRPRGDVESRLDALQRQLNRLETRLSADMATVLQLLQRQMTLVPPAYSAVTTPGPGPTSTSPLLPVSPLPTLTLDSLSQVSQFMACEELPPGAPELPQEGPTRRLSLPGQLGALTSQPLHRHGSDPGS
Turning to `Cn1c(/C(C#N)=C/C2CC=CCC2)nc2ccccc21` (stereo not shown), the “hERG current change (%, negative = inhibition) at 1uM” value was -6.71%.

For `C/C(N)=C(/C#N)C(=O)COC(=O)c1ccc(O)cc1`, the “hERG current change (%, negative = inhibition) at 1uM” value was 9.13%.

On to `CCOC(=O)c1c(CSc2ccc(C)cc2)n(C)c2cc(Br)c(O)c(CN(C)C)c12.Cl.O`, for which the “hERG current change (%, negative = inhibition) at 1uM” value was determined as 18%.

With `OCCC#Cc1ccc(CN2CCN(Cc3ccccc3)C(CCO)C2)cc1` (stereo not shown), the “hERG current change (%, negative = inhibition) at 1uM” value is listed as -0.519%.

In the case of `Cc1ccc(N(CC(=O)N2CCc3ccccc32)S(=O)(=O)c2cccs2)cc1`, the “hERG current change (%, negative = inhibition) at 1uM” value worked out at 8.95%.

On to `C[C@@H]1O[C@@H](O[C@H]2[C@H](Oc3cc(O)c4c(c3)OC(c3ccc(O)cc3)CC4=O)O[C@H](CO)[C@@H](O)[C@@H]2O)[C@H](O)[C@H](O)[C@H]1O` (stereo partly shown), for which the “hERG current change (%, negative = inhibition) at 1uM” value was determined as 11.9%.

In the case of `O=C(C1=C[C@H](c2coc3ccccc3c2=O)C[C@H](OCc2ccc(CO)cc2)O1)N1CCOCC1`, the “hERG current change (%, negative = inhibition) at 1uM” value is recorded as -8.3%.

As for `CC(=O)c1ccc(OCCOc2ccc(C#N)cc2)cc1`, the “hERG current change (%, negative = inhibition) at 1uM” value is recorded as -5.61%.

Turning to `CCOC(=O)CNc1ncc([N+](=O)[O-])cc1C#N`, the “hERG current change (%, negative = inhibition) at 1uM” value stood at 6.86%.

In the case of `Cn1nc(-c2ccccc2)c2nc3ccccc3nc21`, the “hERG current change (%, negative = inhibition) at 1uM” value came out at 2.37%.

As for `Cc1nc(NCCCn2ccnc2)c2ccccc2n1.Cl`, the “hERG current change (%, negative = inhibition) at 1uM” value came to 11.3%.

On to `COc1cccc(C(=O)Nc2c(F)cccc2F)c1`, for which the “hERG current change (%, negative = inhibition) at 1uM” value came out at 14.3%.

Consider `Cc1c(C(=O)N/N=C/c2ccc(N3CCOCC3)cc2)nc2ccccn12`, for which the “hERG current change (%, negative = inhibition) at 1uM” value worked out at 10.5%.

`COC(=O)c1ccc(CN(c2ccc(OC)cc2)S(=O)(=O)c2ccccc2)cc1`: the “hERG current change (%, negative = inhibition) at 1uM” value came out at 12.4%.

Take `CC(=O)c1cnn(-c2nc3c(C)cccc3s2)c1C`: the “hERG current change (%, negative = inhibition) at 1uM” value is recorded as 4.11%.

Regarding `COC(=O)c1ccccc1Oc1cc(C(F)(F)F)nc(-c2ccccn2)n1`, the “hERG current change (%, negative = inhibition) at 1uM” value came out at 16%.

On to `COc1cc(-c2[nH]ncc2CN2CCSCC2)cc(OC)c1OC`, for which the “hERG current change (%, negative = inhibition) at 1uM” value was 6.12%.

For `CCOc1cc(/C=N\NC(=O)Cn2nnc3ccccc32)ccc1O`, the “hERG current change (%, negative = inhibition) at 1uM” value was 10%.

In the case of `O=C(Cc1ccsc1-c1ccccc1)NO`, the “hERG current change (%, negative = inhibition) at 1uM” value is on record as 12.3%.

On to `COCCNC(=S)NN(c1ccccc1)c1ccccc1`, for which the “hERG current change (%, negative = inhibition) at 1uM” value is -1.69%.

As for `CC1=CC=CC2=NC(=O)CC(C)(C(=O)N(CC(=O)NC3CCCC3)Cc3ccc(Cl)cc3)N12` (stereo not shown), the “hERG current change (%, negative = inhibition) at 1uM” value amounted to 18.9%.

For `CCOC(=O)c1oc2cccc(O)c2c1CN(Cc1ccccc1)C(C)=O`, the “hERG current change (%, negative = inhibition) at 1uM” value was 0.711%.

`O=C(NCc1ccco1)c1cc2n(n1)C(C(F)(F)F)CC(c1ccc(Br)cc1)N2` (stereo not shown): the “hERG current change (%, negative = inhibition) at 1uM” value was -7.46%.

As for `Cc1ccc(SCC(=O)OCC(=O)N(CCC#N)c2ccccc2)cc1C`, the “hERG current change (%, negative = inhibition) at 1uM” value stood at 19.5%.

For `c1ccc(-c2nnc(SCc3nc4ccccc4[nH]3)o2)cc1`, the “hERG current change (%, negative = inhibition) at 1uM” value is -3.74%.

Take `CCC(=O)NC(=S)Nc1ccc(NC(=O)COc2ccc(Cl)c(C)c2)cc1`: the “hERG current change (%, negative = inhibition) at 1uM” value is listed as 7.55%.

For `CCC(C)NC(=O)c1ccc(CSCc2ccccc2Cl)o1` (stereo not shown), the “hERG current change (%, negative = inhibition) at 1uM” value amounted to 9.19%.

Regarding `CCOC(=O)C1(CCc2ccccc2)CCN(CC(O)CO)CC1` (stereo not shown), the “hERG current change (%, negative = inhibition) at 1uM” value worked out at 1.26%.

For the molecule `CCCCOc1ccc(-c2ncc(Cl)cn2)cc1`, the “hERG current change (%, negative = inhibition) at 1uM” value is recorded as 2.78%.

Consider `CCCn1c2ccccc2c2cn[nH]c(=O)c21`, for which the “hERG current change (%, negative = inhibition) at 1uM” value was 11.9%.

For the molecule `CCc1ccccc1NC(=O)CCNS(=O)(=O)c1ccc2c(c1)CCC(=O)N2`, the “hERG current change (%, negative = inhibition) at 1uM” value came out at 8.71%.

As for `CC(CN1CCCC1)OC(=O)C(c1ccccc1)c1ccccc1.Cl` (stereo not shown), the “hERG current change (%, negative = inhibition) at 1uM” value was -1.34%.

Regarding `Cc1ccc2nc(C)c(C(=O)N/N=C/c3ccccc3[N+](=O)[O-])cc2c1`, the “hERG current change (%, negative = inhibition) at 1uM” value is recorded as 6.68%.

In the case of `COc1ccc(CCNC(=O)C2CCN(c3nn4c(=O)cc(C)nc4s3)CC2)cc1OC`, the “hERG current change (%, negative = inhibition) at 1uM” value stood at 2.28%.

Consider `COc1ccc(N2C(=O)CC(N3CCN(S(=O)(=O)c4ccc(Cl)cc4)CC3)C2=O)cc1` (stereo not shown), for which the “hERG current change (%, negative = inhibition) at 1uM” value is listed as 2.11%.

For the molecule `Cc1ccc(CN2C(=O)[C@@H]3Cc4c([nH]c5ccccc45)C(C)(C)N3C2=O)cc1`, the “hERG current change (%, negative = inhibition) at 1uM” value was 15.2%.

On to `Cc1ccc(C(C(=O)NC(C)(C)C)N(Cc2ccccc2)C(=O)c2snc(C(N)=O)c2N)o1` (stereo not shown), for which the “hERG current change (%, negative = inhibition) at 1uM” value came out at 9.44%.

Consider `CCOC(=O)c1c(CSc2ccccc2)n(C)c2ccc(O)c(CN3CCOCC3)c12`, for which the “hERG current change (%, negative = inhibition) at 1uM” value is -0.93%.

In the case of `O=C(NCC(=O)N1CCCCC1)c1ccc(Cl)cc1Cl`, the “hERG current change (%, negative = inhibition) at 1uM” value came to 8.88%.

Consider `COc1ccc(C2CC(c3ccccc3)=NN2c2ccc(C(N)=O)cc2)cc1` (stereo not shown), for which the “hERG current change (%, negative = inhibition) at 1uM” value is 15.6%.

Turning to `Cc1ccc(C(=O)CSc2nnc(-c3ccccc3N)n2C)cc1C`, the “hERG current change (%, negative = inhibition) at 1uM” value stood at 14%.

`CCOc1ccc(NS(=O)(=O)c2ccc(NC(=O)c3cccnc3)c(OC)c2)cc1`: the “hERG current change (%, negative = inhibition) at 1uM” value was determined as 7.15%.

`CN(C)/N=C/c1ccc(OC(=O)c2cccc([N+](=O)[O-])c2)cc1`: the “hERG current change (%, negative = inhibition) at 1uM” value was -2.06%.

Regarding `Cc1ccc(CNC(=O)C2CCCN(S(C)(=O)=O)C2)cc1` (stereo not shown), the “hERG current change (%, negative = inhibition) at 1uM” value came out at 12.1%.

Regarding `S=C(NCc1ccncc1)Nc1ccc(Cl)c(Cl)c1`, the “hERG current change (%, negative = inhibition) at 1uM” value turned out to be 6.45%.

For `COc1ccc(-c2c3c(=O)n(C)c(=O)n(C)c3cn2-c2cccc(OC)c2)cc1`, the “hERG current change (%, negative = inhibition) at 1uM” value is listed as 12.7%.

`CCC1C(C#N)=C(SC)NC2=C1C(=O)CC(C)(C)C2` (stereo not shown): the “hERG current change (%, negative = inhibition) at 1uM” value is on record as -1.27%.

For `CC(=O)C1=C(O)C(=O)N(c2ccc(Br)cc2)C1c1cccc(F)c1` (stereo not shown), the “hERG current change (%, negative = inhibition) at 1uM” value came to 8.55%.

In the case of `O=C(N/N=C/c1cccs1)c1cnccn1`, the “hERG current change (%, negative = inhibition) at 1uM” value came to 3.24%.

For the molecule `CC(C)C[C@@]12C(=O)N(c3cccc(Cl)c3)C(=O)N1[C@H](c1ccc(Cl)cc1)[C@@H]1C(=O)N(C3CCCCC3)C(=O)[C@@H]12`, the “hERG current change (%, negative = inhibition) at 1uM” value is given as 9.9%.

For `Cc1ccc(NC(=O)CSc2nnc(-c3ccncc3)o2)cc1C`, the “hERG current change (%, negative = inhibition) at 1uM” value was 14.4%.

As for `COc1ccc2nc(SCC(N)=O)[nH]c2c1`, the “hERG current change (%, negative = inhibition) at 1uM” value is reported as 1.28%.

As to `CCN1CCN(S(=O)(=O)c2ccc(Cl)c(C(=O)Nc3ccccc3N3CCCCC3)c2)CC1`, the “hERG current change (%, negative = inhibition) at 1uM” value was found to be 26%.

As for `Cc1ccccc1OCCCC(=O)Nc1ccc(S(=O)(=O)Nc2onc(C)c2C)cc1`, the “hERG current change (%, negative = inhibition) at 1uM” value is given as 16.7%.

As to `CCn1c(CCNC(=O)c2ccc(C)cc2)n[nH]c1=S`, the “hERG current change (%, negative = inhibition) at 1uM” value is given as 4.88%.
